These results are taken from article PMC4336329 (PLoS ONE, 2015).

The whole screen tested about 310,000 compounds, of which about 14,000 (4.5%) showed an effect of 50% or more. The effect is printed as a negative number. Some of the results follow.
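Note: peak tail current of the secondary pulse compared with the same well before compound.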

human ether-à-go-go-related gene (hERG) potassium channel, sequence (Q12809 whole entry, looked up): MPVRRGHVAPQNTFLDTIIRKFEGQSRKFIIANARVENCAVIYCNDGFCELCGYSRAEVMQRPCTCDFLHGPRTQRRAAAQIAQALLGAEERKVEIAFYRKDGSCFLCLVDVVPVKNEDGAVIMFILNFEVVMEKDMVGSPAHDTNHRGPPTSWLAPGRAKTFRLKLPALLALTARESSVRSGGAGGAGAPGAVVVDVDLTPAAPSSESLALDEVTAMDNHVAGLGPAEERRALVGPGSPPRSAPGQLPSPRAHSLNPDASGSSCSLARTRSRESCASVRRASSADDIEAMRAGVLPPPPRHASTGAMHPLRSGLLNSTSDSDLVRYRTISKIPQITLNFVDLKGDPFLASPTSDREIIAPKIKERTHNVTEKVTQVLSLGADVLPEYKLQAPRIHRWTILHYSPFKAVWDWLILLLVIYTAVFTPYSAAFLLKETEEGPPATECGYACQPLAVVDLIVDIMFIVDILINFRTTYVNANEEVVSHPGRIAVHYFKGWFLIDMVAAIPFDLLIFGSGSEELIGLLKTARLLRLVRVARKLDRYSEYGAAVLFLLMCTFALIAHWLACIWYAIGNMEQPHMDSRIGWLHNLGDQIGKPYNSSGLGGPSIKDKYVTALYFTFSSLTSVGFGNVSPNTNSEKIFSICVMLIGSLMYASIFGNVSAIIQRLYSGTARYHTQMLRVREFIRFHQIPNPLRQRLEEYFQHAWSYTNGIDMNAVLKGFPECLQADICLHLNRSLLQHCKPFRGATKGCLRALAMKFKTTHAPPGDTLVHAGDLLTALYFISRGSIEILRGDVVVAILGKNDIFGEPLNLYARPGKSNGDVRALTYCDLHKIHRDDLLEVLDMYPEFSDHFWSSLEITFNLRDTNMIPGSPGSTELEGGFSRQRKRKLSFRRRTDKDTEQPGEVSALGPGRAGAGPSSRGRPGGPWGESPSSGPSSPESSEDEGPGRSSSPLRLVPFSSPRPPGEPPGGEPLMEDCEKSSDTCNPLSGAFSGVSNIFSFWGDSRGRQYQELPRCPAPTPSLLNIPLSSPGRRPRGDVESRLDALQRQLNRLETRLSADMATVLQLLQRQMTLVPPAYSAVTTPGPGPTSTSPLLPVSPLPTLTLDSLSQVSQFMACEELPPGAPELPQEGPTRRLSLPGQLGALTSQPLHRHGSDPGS

The assay concerns the target human ether-à-go-go-related gene (hERG) potassium channel (human, UniProt Q12809). Briefly: primary screen, population patch clamp on CHO cells stably expressing hERG.
In the case of `CCOc1cccc(OCCCCn2ccnc2)c1`, the “hERG current change (%, negative = inhibition) at 10uM” value is on record as -9.04%.

Turning to `CC1(C(=O)NCc2cccnc2)CCC(=O)N1Cc1cccs1` (centres unmarked), the “hERG current change (%, negative = inhibition) at 10uM” value was found to be 11.9%.

Turning to `O=C(COc1ncnc2ccccc12)NCCCN1CCCC1=O`, the “hERG current change (%, negative = inhibition) at 10uM” value was 4.42%.

`CCN1CCN(CC(O)COC(c2ccccc2)c2ccccc2)CC1` (centres unmarked): the “hERG current change (%, negative = inhibition) at 10uM” value is reported as -17.1%. Then `CC(C)(C)c1ccc(C(=O)N2CCCC2)s1`, with 9.61%. For `Cc1c(C)c2ccc(Oc3ccc([N+](=O)[O-])cc3C(F)(F)F)c(C)c2oc1=O`, the “hERG current change (%, negative = inhibition) at 10uM” value amounted to 5.45%. As for `Cc1cccc(NC(=O)CSCC(=O)N(C)CCOc2ccc(Cl)cc2)c1`, the “hERG current change (%, negative = inhibition) at 10uM” value came out at 6.99%. Then `O=C(Nc1ccc2c(c1)OCO2)Nc1cnccn1`, with 4.55%. On to `COC(=O)Cc1cc(=O)[nH]c(/N=C(\N)Nc2ccc(C)cc2C)n1`, for which the “hERG current change (%, negative = inhibition) at 10uM” value is given as -0.985%. For `COc1ccc(-c2nc(N)n(S(=O)(=O)c3ccc(C)cc3)n2)cc1`, the “hERG current change (%, negative = inhibition) at 10uM” value is on record as 39%. Then `CC(=O)N1CCc2cc(Br)cc(S(=O)(=O)N3CCC(C(=O)O)CC3)c21`, with 13.6%. For `O=C(NC1CCCC1)C1CC(=O)N(CCc2ccccc2)C1` (centres unmarked), the “hERG current change (%, negative = inhibition) at 10uM” value worked out at 9.66%.

For the molecule `Cc1ccc(-n2c(O)c(C=Nc3ccccc3N)c(=O)[nH]c2=O)cc1C`, the “hERG current change (%, negative = inhibition) at 10uM” value was -4.01%. `COc1ccc(/C=C/C(=O)NCC2COc3ccccc3O2)c(OC)c1` (centres unmarked): the “hERG current change (%, negative = inhibition) at 10uM” value is reported as -7.34%.

For the molecule `Cc1onc(-c2ccccc2)c1C(=O)N/N=C(\N)COc1ccc(Cl)cc1`, the “hERG current change (%, negative = inhibition) at 10uM” value is recorded as -38.2%. Regarding `Cc1ccc(-n2ncc3c2CC(C)(C)CC3NC(=O)c2ccc[n+]([O-])c2)cc1` (centres unmarked), the “hERG current change (%, negative = inhibition) at 10uM” value is given as -1.89%.

As for `COc1ccc(N(C)S(=O)(=O)c2cccc(C(=O)NC3CCCC3)c2)cc1`, the “hERG current change (%, negative = inhibition) at 10uM” value is -9.64%.

As for `COc1cccc(CCNC(=O)c2cccc(NC(=O)C3=C(C)OCCS3)c2)c1`, the “hERG current change (%, negative = inhibition) at 10uM” value is reported as -24.3%. In the case of `CCC/C(O)=C1\C(=O)CCCC1=NCCc1ccc(OCC)c(OCC)c1` it was -16.1%; in that of `O=C(OCN1C(=O)c2ccccc2C1=O)c1cccc(S(=O)(=O)N2CCOCC2)c1`, -3.06%.

For the molecule `CC(=O)Nc1cccc(NC(=O)CSc2ncc(-c3ccccc3)[nH]2)c1`, the “hERG current change (%, negative = inhibition) at 10uM” value came out at 8.41%. Then `Cn1c(SCC(=O)NCCN2C(=O)CSC2=O)nnc1-c1ccccc1`, with 9.34%; and `Cc1cc(C)cc(NC(=O)C(=O)NCC2CCCN2S(=O)(=O)c2cccs2)c1` (centres unmarked), with -18.1%; and `COc1ccc(Cl)cc1N(C(=O)c1ccco1)C(C(=O)NC1CCCC1)c1ccco1` (centres unmarked), with -7.07%. In the case of `O=C(CSc1nnc(Cc2cccs2)n1-c1ccccc1)Nc1ccc2c(c1)OCCO2` it was -7.99%; in that of `O=c1cc(-c2cccc(F)c2)[nH]c2ccccc12`, 4.97%; in that of `Cc1ccc2nc(-c3cccc(NC(=O)c4ccco4)c3)[nH]c2c1`, -30.7%.

For the molecule `CC1C(=O)C(C)C(c2cc(Cl)ccc2O)NC1c1cc(Cl)ccc1O` (centres unmarked), the “hERG current change (%, negative = inhibition) at 10uM” value came to 9.52%. Then `COc1ccc(S(=O)(=O)Cc2ccc(C(=O)N3CCN(c4ccc(Cl)cc4)CC3)o2)cc1`, with -55.5%; and `CCOC(=O)N(Cc1ccccc1)Cc1ccc(C(=O)N[C@@H](Cc2ccccc2)C(=O)O)cc1`, with 13.8%; and `O=C(CSc1nnc(-c2cccs2)n1-c1ccccc1)N1CCCC1`, with -16.8%. Consider `O=c1nc2ccccc2c2n1CC(CN1CCN(c3cccc(Cl)c3)CC1)N2` (centres unmarked), for which the “hERG current change (%, negative = inhibition) at 10uM” value is given as -63.3%.

In the case of `CC(=O)/C(=C/N(C)C)Sc1ccc(C)cc1`, the “hERG current change (%, negative = inhibition) at 10uM” value came out at 13.3%. Then `O=C(Nc1ccc2c(c1)OCCO2)C1CCN(S(=O)(=O)c2cccs2)CC1`, with -18.6%. Then `O=C(NCc1ccccn1)[C@@H]1C[C@H]1[C@@H](NP(=O)(c1ccccc1)c1ccccc1)c1ccccc1`, with -1.3%; and `CC(OC(=O)CCC1CCCCC1)C(=O)Nc1ccc(S(N)(=O)=O)cc1` (centres unmarked), with -6.94%. Take `CC(=O)Nc1ccc(C2CC(c3ccc(Cl)cc3)=NN2c2ccccc2)cc1` (centres unmarked): the “hERG current change (%, negative = inhibition) at 10uM” value is -25.8%. Then `C=CCn1c(SCc2csc(C)n2)nc2sc3c(c2c1=O)CCC(C)C3` (centres unmarked), with 6.82%. In the case of `CC1=C(C)C(=O)N(c2ccc(C(=O)O)cc2)C1=O`, the “hERG current change (%, negative = inhibition) at 10uM” value turned out to be 16.4%. Then `CCOC(=O)C1=C(C)N=C2SC=C(C)N2C1c1ccc(OC)cc1.Cl` (centres unmarked), with -19.8%. Then `NC(=O)C1CCN(C(=O)c2cccc(S(=O)(=O)N3CCc4ccccc4C3)c2)CC1`, with 0.623%; and `C=CCSc1nnc(CNS(=O)(=O)c2ccc(C)cc2)n1C`, with 4.7%. As to `O=C(c1ccncc1)c1ccc([N+](=O)[O-])cc1`, the “hERG current change (%, negative = inhibition) at 10uM” value is 5.29%. As to `O=c1c(Cl)c(Cl)cnn1Cc1ccccc1Cl`, the “hERG current change (%, negative = inhibition) at 10uM” value is -3.11%.
